# In all, about 50,000 compounds went through this assay and about 800 (1.6%) showed an effect of 50% or more. Some of the results follow.
# Target: Bcl-2-like protein 10 (Homo sapiens) (UniProt Q9HD36)
# Assay: TR3 peptide-Bcl-B binding displacers, biochemical primary FP assay, phenotype converters (AID 1240);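 also: 0% = Bcl-B with tracer peptide and DMSO and 100% = tracer peptide lacking Bcl-B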
# Details: GST-Bcl-B / FITC-TR3 peptide fluorescence polarization; stronger effect = higher value; compound at 3.75 mg/L
# Chain of UniProt Q9HD36 (Q9HD36 whole entry, looked up): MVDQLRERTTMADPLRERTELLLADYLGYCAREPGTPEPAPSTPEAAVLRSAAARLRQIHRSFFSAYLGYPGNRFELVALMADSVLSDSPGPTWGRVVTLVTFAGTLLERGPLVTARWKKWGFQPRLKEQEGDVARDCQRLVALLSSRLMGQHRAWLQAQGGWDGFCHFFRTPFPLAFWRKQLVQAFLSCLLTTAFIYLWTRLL
row,Compound,displacement [%]
1,N/C(=N\c1nc2ccccc2s1)NC(=O)c1ccccc1,-4.1
2,CCOC(=O)C1=C(C)NC(=S)NC1c1ccc(Cl)cc1 (stereo not drawn),-7.9
3,CCCCOc1ccccc1NC(=O)c1ccc(OC)c(OC)c1,-17.1
4,O=C1c2ccc(-c3nc4cc(Cl)ccc4c(=O)o3)cc2C(=O)N1c1cccc([N+](=O)[O-])c1,5.4
5,Cc1c(NS(=O)(=O)c2ccccc2)cccc1[N+](=O)[O-],-2.8
6,Cc1ccc2ncnc(NCc3cccnc3)c2c1,0.9
7,Cc1ccc(OCCOCCN2CCC(C)CC2)cc1,-3
8,CC(=O)Oc1ccc(NC(=O)CN2C(=O)c3ccccc3C2=O)c(C)c1,-5.1
9,COc1ccc(Cl)cc1N=Cc1ccc(OC2CSC2)cc1,1.2
10,Cc1ccc(-c2ccccc2NC(=O)c2ccccc2)o1,14.5
11,Cc1cccc(N2CCN(C(=O)c3ccccc3)CC2)c1C,-2.5
12,CCN(CC)S(=O)(=O)c1cc(C(=O)Nc2ccc(C)cc2)ccc1C,-14.1
13,CS(=O)(=O)N1CCN(Cc2ccc(C(F)(F)F)cc2)CC1,8.1
14,Cn1cc(/C=C2/SC(=S)N(c3cccc(C(F)(F)F)c3)C2=O)c2ccccc21,-7.6
15,O=C(CN(c1cccc([N+](=O)[O-])c1)S(=O)(=O)c1ccccc1)N1CCOCC1,5
16,O=[N+]([O-])c1cc(C(F)(F)F)cc([N+](=O)[O-])c1N1CCN(CCO)CC1,-2.1
17,CSc1ccccc1NC(=O)c1cc2n(n1)C(C(F)(F)F)CC(c1ccc(Br)cc1)N2 (stereo not drawn),6.7
18,CC1CN(c2ccc([N+](=O)[O-])cc2)CCN1C(=O)c1ccc(Cl)cc1 (stereo not drawn),-3.8
19,COc1ccc(NC(=O)COc2cccc3ccccc23)c(OC)c1,12.4
20,COc1ccc(NC(=O)CCC(=O)NCCO)cc1,-4.3
21,O=C(Nc1ccc(-c2nc3ccccc3o2)c(O)c1)c1cccc(Cl)c1Cl,4.2
22,COc1cc(/C=N\Nc2nnc(-c3ccccc3)c(=O)[nH]2)cc([N+](=O)[O-])c1O,-5.8
23,Cc1ccc(C(=O)Nc2ccc3c4c(cccc24)CC3)cc1[N+](=O)[O-],0.3
24,COc1ccccc1N1CCN(/N=C(\C)c2ccc(O)cc2)CC1,16.9
25,CN(CCOC(=O)C(C)(c1ccccc1)c1ccccc1)C(C)(C)C,12.7
26,COc1cccc(C(=O)N2N=C(C(F)(F)F)CC2(O)C(C)(C)C)c1 (stereo not drawn),7.9
27,CC(=O)Nc1ccc2c(c1)S(=O)(=O)c1cc(NC(C)=O)ccc1-2,1.6

row,Compound,displacement [%]
1,CC(=O)N1c2ccccc2-c2c(sn(-c3ccc(C)cc3)c2=S)C1(C)C,-3.5
2,O=c1/c(=C/c2cc([N+](=O)[O-])c(N3CCOCC3)cc2N2CCOCC2)sc2nc3ccccc3n12,6.7
3,COc1ccc(-c2nc3c(n2O)CCc2c-3no[n+]2[O-])cc1,-10
4,COc1cc(NC(=O)c2cc3nc(-c4ccco4)cc(C(F)(F)F)n3n2)cc([N+](=O)[O-])c1,3.5
5,CN(C)c1ccc(NC(=O)C2C3C=CC(C3)C2C(=O)O)cc1 (stereo not drawn),33.6
6,COc1cc(C(=O)N2CCN(Cc3ccncc3)CC2)cc(OC)c1OC,-17.2
7,CC1(C)CC(=O)c2c(oc3ccc(NS(=O)(=O)c4ccc(Cl)cc4)cc23)C1,2
8,CCOc1ccc(C(=O)Nc2cccc(-c3nc4cc(C)ccc4o3)c2C)cc1,17.4
9,CCC(C(=O)NCc1ccc(F)cc1)c1ccccc1 (stereo not drawn),-1.6
10,CCc1ccccc1NC(=O)CN(c1cccc(OC)c1)S(=O)(=O)c1ccccc1,6.4
11,Nc1nnc(COc2ccc(Cl)cc2Cl)s1,2.4
12,COc1ccc(/C=C2/SC(=S)N(c3cccc(C(F)(F)F)c3)C2=O)cc1,7
13,COC(=O)c1c(NC(=O)c2c(F)cccc2F)sc2c1CCC(C(C)(C)C)C2 (stereo not drawn),0.7
14,CCOc1cc(/C=C2\SC(=S)N(CCOC)C2=O)ccc1O,89.2
15,CCOC(=O)c1cnc(Sc2ccc([N+](=O)[O-])cc2[N+](=O)[O-])nc1N,5.6
16,Oc1ccc2ccccc2c1CN(Cc1ccccc1)Cc1ccccc1,-7.4
17,COc1ccc(Br)cc1CN1CCN(Cc2ccccn2)CC1,-17.5
18,COc1ccc2c(c1)CCC/C2=N\NC(=O)CN(c1ccccc1)S(=O)(=O)c1ccccc1,0.9
19,CCN(CC)C(=O)c1sc(NC(=O)c2ccc(C(C)(C)C)cc2)c(C(=O)OC(C)C)c1C,-6
20,O=C(NCc1ccco1)c1cc2n(n1)C(C(F)(F)F)CC(c1ccc(Cl)cc1)N2 (stereo not drawn),7.2
21,Oc1[nH]c2ccccc2c1N=Nc1nc(-c2ccccc2)c2cc(Br)ccc2n1,-2
22,C=C(C)COc1ccc2oc(C)c(C(=O)OC)c2c1,7.6
23,CC(Nc1cc(N2CCN(CCO)CC2)ccc1[N+](=O)[O-])c1ccc(Br)cc1 (stereo not drawn),12.1
24,O=C(Cn1cc(/C=C2\NC(=S)NC2=O)c2ccccc21)Nc1ccccc1,-41.9
25,O=c1oc2cc(OCc3c(F)c(F)c(F)c(F)c3F)ccc2cc1-c1ccc2ccccc2n1,-49.7
26,Cn1c(=O)c2c(nc(SCC(=O)Nc3ccc(F)cc3)n2C)n(C)c1=O,9.2

# From PubChem BioAssay AID1240 (Sanford-Burnham Center for Chemical Genomics, 2008)
